Laboratory results as given in patent US20220153862A1 (CSPC MEGALITH BIOPHARMACEUTICAL, published 2022).

How the values were obtained:
[1] = target: T1, TROP2 expressed on human cancer cell lines (human, UniProt P09758 27-323); test: cell-based or functional assay
T1 sequence: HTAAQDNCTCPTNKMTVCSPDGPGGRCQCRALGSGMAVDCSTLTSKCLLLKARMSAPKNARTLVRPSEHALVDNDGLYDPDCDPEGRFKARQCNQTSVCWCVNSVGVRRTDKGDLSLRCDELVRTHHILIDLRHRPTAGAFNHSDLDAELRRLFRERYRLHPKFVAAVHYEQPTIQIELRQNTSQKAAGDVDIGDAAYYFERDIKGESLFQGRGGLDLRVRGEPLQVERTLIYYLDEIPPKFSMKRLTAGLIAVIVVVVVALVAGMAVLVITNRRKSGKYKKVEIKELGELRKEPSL

[2] = target: T1, TROP2 expressed on human cancer cell …; test: cell-based or functional assay; remark: listed apart in the source

B1: DP002-HC1LC1-ADC (other)
heavy: QVQLVQSGAEVKKPGASVKVSCKASGYTFTDYSINWVRQAPGQGLEWMGVISTYYGDASYNQKFKGRVTMTTDTSTSTAYMELRSLRSDDTAVYYCARYGDGYNQFDYWGQGTMVTVSS[human IgG1 constant region cut from this listing]
light: DIVMTQSPDSLAVSLGERATINCRVSESVDSYGNNFMHWYQQKPGQPPKLLIYRASNLESGVPDRFSGSGSGTDFTLTISSLQAEDVAVYYCQQSYEDPYTFGQGTKLEIKRTVAAPSVFIFPPSDEQLKSGTASVVCLLNNFYPREAKVQWKVDNALQSGNSQESVTEQDSKDSTYSLSSTLTLSKADYEKHKVYACEVTHQGLSSPVTKSFNRGEC
modifications: conjugated to monomethyl auristatin E (MMAE) at a drug-antibody ratio (DAR) of 2; the example does not state the site or the chain
IC50 (nM), in vitro cytotoxicity, BxPC-3 cells [1]: 0.16 nM | IC50 (nM), in vitro cytotoxicity, HCC1954 cells [1]: 0.18 nM | IC50 (nM), in vitro cytotoxicity, NCI-N87 cells [1]: 0.04 nM | IC50 (nM), in vitro cytotoxicity, HCC38 cells [2]: > 100 nM | IC50 (nM), in vitro cytotoxicity, MDA-MB-468 cells [2]: 0.15 nM
